Drawing on PubChem BioAssay (NCI), this text covers TGI and GI50 for 78 compounds.

“And” between values parts separate entries of the source, which are not always exact repeats. Equal entries are not always repeated.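 Tested at 5 concentrations; 48 h exposure; 96-well plates; endpoints linearly interpolated, else capped at highest concentration. At the GI50, growth is halved. Definition used: TGI = concentration required for complete inhibition of growth.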 Square brackets hold non-standard residues; d marks the D form. Peptide text beside a SMILES is read from it. * marks the point of attachment. Hyp = O=C(O)[CH]1C[CH](O)CN1; Cbz = O=C(OCc1ccccc1)*

What is called TGI is the concentration giving total growth inhibition. As usually defined, the GI50 is the concentration giving 50% growth inhibition.

The assay has as its system NCI-H322M lung. Description: DTP human tumour cell line panel, 48 h.
For `CCCCCCCCCCCCCC/C(C(=O)O)=C(\C)C(=O)O`, the TGI is more than 100 µM.

Consider `CCOC(=O)c1cccc(N=Nc2ncc(/C=C/C(=O)OC)[nH]2)c1`, for which the TGI was 89.5 µM.

On to `CCOC(=O)COc1cc(-c2ccccc2)nc2cc(F)ccc12`, for which the TGI is more than 100 µM. For `CCC1C[N+]2=C(c3cc(OC)c(OC)cc3CC2)c2c1cc1n2CCc2cc(OC)c(OC)cc2-1` (stereo not drawn), the GI50 is 18.3 µM and the TGI is 75.2 µM.

With `COc1ccc([C@H]2[C@@H]3CCc4ccccc4C3=NN2C(N)=S)cc1OC`, the TGI is more than 100 µM. `COc1ccc(C2C(C(=O)O)=C(CO)Oc3cc4c(cc32)OCO4)c(OC)c1` (stereo not drawn) gave a total growth inhibition concentration (TGI) of more than 100 µM. On to `O=C(Cn1c2c(c3ccccc31)CCCC2)N1CCOCC1`, for which the TGI was more than 100 µM. Turning to `COc1ccc(-c2cncn2-c2ccc(-c3nc4cc(OC)c(OC)c(OC)c4s3)cc2)cc1N`, the GI50 was 25.7 µM and the TGI was more than 100 µM. On the same counts, the results for `CN1CCC(n2cnc(-c3ccc(F)cc3)c2-c2ccnc(Nc3ccccc3)n2)CC1` are 7.8 µM and more than 25 µM. Compound `OCC(O)C(OC1OC(CO)C(O)C(O)C1O)c1nn(-c2ccc(Cl)cc2)c2nc3cc(Cl)c(Cl)cc3nc12` (stereo not drawn) yielded a TGI of more than 100 µM. The same measure, in the same setting: in the case of `CN(C(=O)C12C3(C(=O)O)C4C5(C(=O)O)C3C1(C(=O)O)C5C42C(=O)O)C(C)(C)C` (stereo not drawn) it was more than 100 µM. `COc1ccc2c3c1OC1C4(CCC5C(C2)N(CC2CC2)CCC351)OCCO4` (stereo not drawn): the TGI was more than 100 µM.

`Cc1[nH]c2[nH]c(=S)nc(NC(N)=S)c2c1Cc1ccccc1` returned a TGI of more than 100 µM. Still for that read-out and setting: to `CCOc1cc2cnc3c4cc(OC)c(OC)cc4ccc3c2cc1OC` belongs more than 100 µM; to `CCCCCCCCCc1cc(=O)c2c(O)cc(O)cc2o1`, 38 µM. In turn, `COc1cc(/C=C/C(=O)N[C@@H]2C(=O)N3[C@@H]2SC(C)(C)[C@@H]3C(=O)O)ccc1O` displayed a TGI of more than 100 µM. The same measure, in the same setting: in the case of `NC(=S)N/N=C1/C(=O)N(c2ccccc2)C(=O)C1C(=O)Nc1ccccc1` (stereo not drawn) it was more than 100 µM; in that of `CCOC(=O)/C=C/C1=C(Br)[C@@]2(C)CC[C@@H]3c4ccc(O)cc4CC[C@H]3[C@@H]2C1`, 28.9 µM; in that of `COC(=O)C1OC(SCCN)C(O)C(O)C1O` (stereo not drawn), more than 100 µM. On the same count and under the same terms, to `C=C(C)C1Cc2cc(C(C)=O)ccc2O1` (stereo not drawn) belongs more than 100 µM. As for `Cc1ccc(Nn2c(SCC(=O)Nc3nc(-c4ccccc4)cs3)nc(C)c2C)cc1`, the GI50 is 10.2 µM and the TGI was more than 100 µM. On to `COc1ccccc1C(=O)Nc1ccc(Cl)c(C(=O)OC(C)C)c1`, for which the TGI was more than 100 µM. As for `O=CCC(O)C(O)C(O)CO` (stereo not drawn), the GI50 was more than 100 µM and the TGI was more than 100 µM.

With `COc1ccccc1CNC(=O)/C=C/c1ccc(O)c(O)c1`, the GI50 is more than 100 µM and the TGI was more than 100 µM. For `CC1=C(c2ccccc2)CON(c2ccccc2)C1`, the TGI is more than 100 µM. For `Clc1ccc2c(NCCNc3nc(N4CCCCC4)nc4ccccc34)ccnc2c1`, the GI50 is 2.37 µM and the TGI is 7.09 µM.

Compound `C[C@@H]1C[C@@H]2C(=O)N(c3ccccc3)C(=O)[C@@H]2c2[nH]c3ccc(Br)cc3c21` returned a TGI of more than 100 µM. The same measure, in the same setting: in the case of `CCCCCC/C=C\CCCCCCCCCc1cccc(OC)c1O` it was more than 100 µM. Regarding `Fc1cccc(-c2nc(-c3c[nH]c4ncccc34)cs2)c1`, the GI50 is 77.9 µM and the TGI is more than 100 µM. Turning to `O=C(O)c1ccccc1C(=O)Nc1cc2c(cc1Br)-c1ccccc1C2=O`, the TGI was more than 100 µM.

`CCC12CN(C(=O)OC)C3C(Br)C1CCC(=O)C32` (stereo not drawn) yielded a TGI of more than 100 µM. As for `COc1ccccc1NC(=O)C1=C(C)NC(C)=C(C(=O)Nc2ccccc2OC)C1c1ccc(C2C(C(=O)Nc3ccccc3OC)=C(C)NC(C)=C2C(=O)Nc2ccccc2OC)cc1`, the TGI turned out to be 10.5 µM. Turning to `COc1cc2cc[n+](C)c(Cc3ccc(Oc4cc(Cc5c6cc(OC)c(OC)cc6cc[n+]5C)ccc4OC)cc3)c2cc1OC`, the TGI was more than 100 µM. On the same count and under the same terms, to `CN(C)CCSC(=Nc1ccccc1)n1cccc1` belongs more than 100 µM.

`O=C(/C=C/c1ccco1)N1CCN(Cc2ccccc2)CC1`: the TGI is more than 100 µM.

For `CC(C)(C)COS(=O)OCC(C)(C)C`, the TGI is more than 100 µM. Turning to `C/C=C/C(O)P(=O)(OC)OC` (stereo not drawn), the TGI turned out to be 1.86 µM.

`CC(=O)OC1OC(C2c3cccc(O)c3C(=O)c3c(O)cc(CO)cc32)C(O)C(O)C1O` (stereo not drawn): the TGI is 43.2 µM and 37 µM. As to `C=CC(=O)OCCCS(=O)(=O)[O-].C=CC(=O)OCCCS(=O)(=O)[O-].NC1CCCCC1N.[Pt+4]`, the GI50 is more than 25 µM and the TGI was more than 25 µM. In the case of `COc1cc2c3c(n(CCCN=[N+]=[N-])c(=O)c2cc1OC)-c1ccc(NC(C)=O)cc1C3=O`, the GI50 is more than 50 µM and the TGI is more than 50 µM. Take `N#CC(C#N)=C(N)/C(C#N)=C/c1ccc(O)c(O)c1`: the TGI was more than 100 µM. The same measure, in the same setting: to `CN(C)c1ccc(/C=C2\C[C@H]3[C@@H]4CC=C5C[C@@H](O)CC[C@]5(C)[C@H]4CC[C@]3(C)[C@H]2O)cc1` belongs 29 µM. The compound `Cc1c(-c2cc(-c3ccccc3)n[nH]c2=O)c2ccccc2n1C` displayed a TGI of more than 100 µM. Turning to `COc1cc(-c2cn(-c3ccc(F)cc3)c(=O)[nH]2)cc(OC)c1OC`, the GI50 is more than 100 µM and the TGI is more than 100 µM.

Compound `CC(C(=O)c1ccc(O)cc1)C1(O)C(=O)Nc2c(Cl)cc(Cl)cc21` (stereo not drawn) showed a TGI of more than 100 µM. Same read-out and setting: in the case of `Cc1ccc([N+](=O)[O-])cc1S(=O)(=O)Nc1ccc(C2=NN(C(=O)c3ccccc3)C(c3ccccc3O)C2)cc1` (stereo not drawn) it was more than 100 µM; in that of `COc1ccc(N2C(=O)C3c4[nH]c5ccc(OC)cc5c4C4CCC(c5ccccc5)CC4C3C2=O)cc1` (stereo not drawn), more than 100 µM.

`C=C(C)[C@@H]1CC[C@]2(COC(=O)c3ccccc3C(=O)O)CC[C@]3(C)[C@H](CC[C@@H]4[C@@]5(C)CC[C@H](OC(=O)c6ccccc6C(=O)O)C(C)(C)[C@@H]5CC[C@]43C)[C@@H]12`: the GI50 is 50.7 µM and the TGI was more than 100 µM. `C#C[C@@H](OC(=O)c1ccc([N+](=O)[O-])cc1)[C@@H]1C[C@H]2O[C@@H]([C@H](C/C=C/CC)OC(=O)c3ccc([N+](=O)[O-])cc3)C[C@H]2O1` came in with a TGI of more than 100 µM. The same measure, in the same setting: to `CCOC(=O)CCC(NC(=O)CNC(=O)CNC(=O)C(CCC(=O)OCC)NC(=O)C(CCC(=O)OCC)NC(=O)C(CCC(=O)OCC)NC(=O)OCc1ccccc1)C(=O)NC(CCC(=O)OCC)C(=O)NC(CCC(=O)OCC)C(=O)OCC` (stereo not drawn) (Cbz-E(OEt)E(OEt)E(OEt)GGE(OEt)E(OEt)E(OEt)-OEt; configuration not given here) belongs more than 75 µM.

In the case of `NC(N)=N/N=C/c1c(-c2cccs2)nc2n1CCS2`, the GI50 was 17.5 µM and the TGI is 42.8 µM. Consider `CSc1ccc(NC(=O)CCl)cc1`, for which the TGI was more than 10 µM. Take `CCOC(=O)CCCOc1cc(-c2ccccc2F)nc2cc3c(cc12)OCO3`: the TGI is more than 100 µM. In the case of `C=CC(=O)N1CCC(CNc2ncnc(N)c2-c2ccc(Oc3ccccc3)cc2)CC1`, the GI50 was 21.4 µM and the TGI is more than 100 µM.

Take `CS(=O)(=O)Nc1cccc(-c2ccc3ncnc(Nc4cncc(Cl)c4)c3c2)c1`: the GI50 is 0.36 µM and the TGI was determined as 10.4 µM. `NC(=O)/C=C/c1c[nH]c2nccnc12` yielded a TGI of 17.2 µM. In turn, `O=S(=O)(N1CCCCN(S(=O)(=O)C(F)(F)F)CCCN(S(=O)(=O)C(F)(F)F)CCCCN(S(=O)(=O)C(F)(F)F)CCCN(S(=O)(=O)C(F)(F)F)CCCCN(S(=O)(=O)C(F)(F)F)CCCN(S(=O)(=O)C(F)(F)F)CCCCN(S(=O)(=O)C(F)(F)F)CCC1)C(F)(F)F` returned a TGI of more than 31.6 µM.

Compound `CN1CCN(c2ccc3nc(-c4ccc5nc(CCCc6ccc(N(CCCl)CCCl)cc6)[nH]c5c4)[nH]c3c2)CC1` gave a TGI of more than 100 µM. For the compound `Nc1nc(N)c2cc(S(=O)(=O)c3ccccc3)ccc2n1`, the GI50 was 4.02 µM and the TGI was more than 100 µM.

`O=C(CC(=O)c1cccc2ccccc12)C(=O)Nc1nccs1` registered a TGI of more than 100 µM. On the same count and under the same terms, in the case of `CC(=O)OCc1ncccc1C(OC(C)=O)OC(C)=O` it was more than 100 µM. In the case of `CC(C)CCCC(C)[C@H]1CCC2C3CC=C4C[C@@H](OC(=O)CC(CC(=O)[O-])C(=O)[O-])CC[C@]4(C)C3CC[C@@]21C.N.N.[Pt+4]` (stereo partly drawn), the GI50 is more than 100 µM and the TGI is more than 100 µM. In the case of `COc1ccc(C(=O)c2cc(C)c(OC)c(C)c2)c(OC)c1OC(=O)C(Cl)Cl`, the GI50 was 0.0697 µM and the TGI was more than 100 µM.

The compound `Cc1ccc(C2SCc3nc4ccccc4n32)cc1` (stereo not drawn) returned a TGI of more than 100 µM.

In turn, `O=C(O)c1ccc(C2=Nc3cccc4cccc(c34)N2)cc1` had a TGI of more than 100 µM.

`COc1ccccc1CC1(O)OC(=O)c2ccccc21` (stereo not drawn) showed a TGI of more than 100 µM. Compound `CC(C)(C)CC(C)(C)c1cc2c(O)c(c1)Cc1cc(C(C)(C)CC(C)(C)C)cc(c1O)Cc1cc(C(C)(C)CC(C)(C)C)cc(c1O)Cc1cc(C(C)(C)CC(C)(C)C)cc(c1O)Cc1cc(C(C)(C)CC(C)(C)C)cc(c1O)Cc1cc(C(C)(C)CC(C)(C)C)cc(c1O)Cc1cc(C(C)(C)CC(C)(C)C)cc(c1O)Cc1cc(C(C)(C)CC(C)(C)C)cc(c1O)C2` came in with a TGI of more than 100 µM.

Consider `O=C1NC(=O)C23C(=O)NC(=O)C12C1C=CC3CC1` (stereo not drawn), for which the TGI is more than 10 µM.

With `O=C(Cc1ccc(-c2ccc(OCCN3CCOCC3)cc2)cn1)NCc1ccccc1`, the GI50 is 0.0747 µM and 0.0579 µM; the TGI was more than 100 µM. As for `N#CCc1ccccc1/C(C#N)=C1/OC(=N)C(c2ccccc2CC#N)C1=O` (stereo not drawn), the TGI is more than 100 µM. The same measure, in the same setting: in the case of `COC(=O)CCC(=O)Nc1cc(C)ccc1C` it was more than 100 µM; in that of `NC(=O)CNC(=O)C1CC(O)CN1C(=O)C1CCCN1C(=O)OCc1ccccc1` (stereo not drawn) (Cbz-Pro-[Hyp]-Gly-NH2; configuration not given here), more than 100 µM; in that of `C#CCn1c2c(c3ccccc3c1=O)C(=O)c1ccccc1-2`, 62.6 µM. The same measure, in the same setting: to `CNC(=O)NCCCCC(NC(=O)OCc1ccccc1)C(=O)OCc1ccccc1` (stereo not drawn) belongs more than 100 µM; to `O=C(Cc1ccccc1)Nc1nc2ccc(Cl)cc2c2nc(-c3ccco3)nn12`, more than 100 µM; to `COc1ccc(/C=N/NC(=O)CSc2nc(-c3ccccc3)c(-c3ccccc3)[nH]2)cc1OC`, 91.4 µM.

In turn, `C/C(=N\NC(N)=S)C(CN1CCCCC1)C(C1=C(O)c2ccccc2OC1)c1ccccc1` (stereo not drawn) had a TGI of more than 100 µM. Turning to `O=C1c2ccccc2-c2c1c1ccc3ccccc3c1n2-c1ccccc1`, the GI50 is 25.3 µM and the TGI was found to be 61.1 µM.
